Reference: article PMC6800368, “Rotational symmetry of the structured Chip/LDB-SSDP core module of the Wnt enhanceosome” (Proceedings of the National Academy of Sciences of the …, 2019)
Where a chain is given by its changes, count along the chain named. These are yes or no findings as the source states them, for the method shown. For part of these data: In cells and extracts the contact can be indirect. Some binding calls cover weakened binding; strength is not graded here. For part of these data: Sequences can lack the tags named with a protein. Values belong to the binder of their own block, whether it stands above or below them.

What was measured:
SSDP-FLAG (Drosophila) = molecular target: T1, SSDP-FLAG (Drosophila) (UniProt Q9VEB9); assay: co-IP; SSDP-FLAG coexpressed with WT or mutant SSDP-V5 in HEK293T LDB1/LDB2 DKO cells
T1 sequence: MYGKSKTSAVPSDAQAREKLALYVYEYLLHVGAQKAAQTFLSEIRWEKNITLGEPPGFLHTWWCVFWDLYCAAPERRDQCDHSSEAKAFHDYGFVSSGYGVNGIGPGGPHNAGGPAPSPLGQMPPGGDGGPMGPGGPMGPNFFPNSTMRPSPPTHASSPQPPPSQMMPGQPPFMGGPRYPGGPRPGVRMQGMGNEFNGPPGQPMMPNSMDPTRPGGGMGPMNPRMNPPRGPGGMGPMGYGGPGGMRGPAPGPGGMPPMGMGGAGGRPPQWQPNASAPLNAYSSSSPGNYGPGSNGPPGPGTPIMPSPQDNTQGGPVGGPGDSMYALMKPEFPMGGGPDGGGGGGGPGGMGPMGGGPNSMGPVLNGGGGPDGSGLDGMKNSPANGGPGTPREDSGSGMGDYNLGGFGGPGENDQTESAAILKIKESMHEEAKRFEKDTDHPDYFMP

[1] = molecular target: T2, Chip-V5FLAG M402E (Drosophila) (UniProt Q7KVG9); assay: co-IP; Chip-V5FLAG (WT or mutant) coexpressed with SSDP-V5 (WT or mutant) in HEK293T cells
T2 sequence: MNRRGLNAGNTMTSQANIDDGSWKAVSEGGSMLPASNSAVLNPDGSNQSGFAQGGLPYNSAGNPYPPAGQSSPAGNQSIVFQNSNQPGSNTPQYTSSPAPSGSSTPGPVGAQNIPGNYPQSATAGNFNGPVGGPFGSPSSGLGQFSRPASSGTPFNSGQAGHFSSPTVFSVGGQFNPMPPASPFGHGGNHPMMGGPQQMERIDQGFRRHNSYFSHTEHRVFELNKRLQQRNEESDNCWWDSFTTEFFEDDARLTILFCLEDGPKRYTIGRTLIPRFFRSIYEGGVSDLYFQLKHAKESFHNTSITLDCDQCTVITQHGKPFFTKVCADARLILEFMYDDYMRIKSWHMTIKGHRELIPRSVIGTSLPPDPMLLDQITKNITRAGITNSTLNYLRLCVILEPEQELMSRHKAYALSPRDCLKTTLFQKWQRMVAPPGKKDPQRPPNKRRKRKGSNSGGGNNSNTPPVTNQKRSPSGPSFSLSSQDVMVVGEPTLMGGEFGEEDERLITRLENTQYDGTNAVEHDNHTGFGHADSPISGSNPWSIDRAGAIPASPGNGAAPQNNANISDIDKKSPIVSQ

[2] = molecular target: T3, Chip-V5FLAG M406R (Drosophila) (UniProt Q7KVG9); assay: as above
T3 sequence: T2 sequence with E402M, M406R

Chip-V5FLAG (Drosophila) = molecular target: T4, Chip-V5FLAG (Drosophila) (UniProt Q7KVG9); assay: as above
T4 sequence: T2 sequence with E402M

[3] = molecular target: T5, Chip-V5FLAG L405D (Drosophila) (UniProt Q7KVG9); assay: as above
T5 sequence: T2 sequence with E402M, L405D

[4] = molecular target: T6, DD-LCCD2 (XLdb1 20-226) (Xenopus laevis) (UniProt P70060); assay: co-purification after bacterial coexpression; bicistronic coexpression of SSDP_(1–92) and DD-LCCD from XLdb1 in E. coli; complexes purified (Ni-NTA, gel filtration)
T6 sequence: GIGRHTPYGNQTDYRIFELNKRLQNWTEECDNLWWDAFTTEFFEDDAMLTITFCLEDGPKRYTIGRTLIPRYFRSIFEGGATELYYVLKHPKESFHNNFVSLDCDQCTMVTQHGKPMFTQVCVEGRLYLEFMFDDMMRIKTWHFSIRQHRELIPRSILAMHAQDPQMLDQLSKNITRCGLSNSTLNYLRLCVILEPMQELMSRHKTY

[5] = molecular target: T7, DD-LCCD1 (XLdb1 20-244) (Xenopus laevis) (UniProt P70060); assay: as above
T7 sequence: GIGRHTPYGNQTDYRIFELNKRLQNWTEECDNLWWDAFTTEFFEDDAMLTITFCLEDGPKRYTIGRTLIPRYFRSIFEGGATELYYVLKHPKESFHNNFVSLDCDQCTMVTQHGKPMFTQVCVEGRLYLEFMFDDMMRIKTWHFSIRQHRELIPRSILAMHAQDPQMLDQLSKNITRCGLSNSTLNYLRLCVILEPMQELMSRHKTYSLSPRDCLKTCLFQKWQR

[6] = molecular target: T8, MBP-LCCD_(Chip) Mα6 (M402E L405D M406R) (Drosophila) (UniProt Q7KVG9); assay: SEC-MALS; MBP-LCCD_(Chip) (WT or Mα6) coexpressed with Lip-SSDP_(1–92) (WT, V65K, Mα3 or ML), purified; Superdex-200 10/300, 2 mg/mL, PBS, 1 mM DTT; PAGE of SEC fractions; both purified
T8 sequence: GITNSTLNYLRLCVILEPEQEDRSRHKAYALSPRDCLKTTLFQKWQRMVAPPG

[7] = molecular target: T9, SSDP-V5 F58E (Drosophila) (UniProt Q9VEB9); assay: co-IP; Drosophila Pygo coexpressed with Chip and SSDP (WT or mutants) in HEK293T cells
T9 sequence: T1 sequence with F58E

- binding (SSDP-FLAG (Drosophila)): binds
- binding [1]: no binding
- binding [2]: no binding
- binding (Chip-V5FLAG (Drosophila)): binds
- binding [3]: binds
B1: SSDP-V5 (protein, UniProt Q9VEB9 1-445)
chain: T1 sequence

- binding [4]: binds
- binding [5]: binds
B2: SSDP_(1–92) (coexpressed with XLdb1 DD-LCCD) (domain or fragment, UniProt Q9VEB9 1-92)
chain: MYGKSKTSAVPSDAQAREKLALYVYEYLLHVGAQKAAQTFLSEIRWEKNITLGEPPGFLHTWWCVFWDLYCAAPERRDQCDHSSEAKAFHDY

- binding [6]: no binding
B3: Lip-SSDP_(1–92) (domain or fragment, Drosophila, UniProt Q9VEB9 1-92, looked up)
chain: B2 chain
notes: Drosophila SSDP, residues 1-92; Obligate dimer; dimers and tetramers are seen by SEC-MALS; also called SSDP-N; WT Lip-SSDP_(1–92); source: E. coli BL21(DE3)-RIL, purified (Ni-NTA, gel filtration); alone or coexpressed with MBP-LCCD from a bicistronic vector

- binding [7]: no binding
B4: Drosophila Pygo (protein, UniProt Q9V9W8 1-815)
chain: MTHNLGMAPYRLPGPAGGLCPPDFKPPPPTDIISAPSNPKKRRKTSSAANSAAAVAAAAAAAAAANSMQQQQAPPTPQDLLPPPPMGGFGDTIIASNPFDDSPQVSAMSSSAAAAMAAMNQMGGGPGGGHFGGGGPGGHPHWEDRMGMGGGPPPPPHMHPHMHPHHPGGPMGHPHGPHPHMGGPPPMRGMSPMHPHQMGPGPGVGLPPHMNHGRPGGPGGPGGPVPMGSPMGGIAGMGGMSPMGGMGGPSISPHHMGMGGLSPMGGGPNGPNPRAMQGSPMGGPGQNSPMNSLPMGSPMGNPIGSPLGPPSGPGPGNPGNTGGPQQQQQQPPQPPMNNGQMGPPPLHSPLGNGPTGHGSHMPGGPIPGPGPGPGGLVGPGGISPAHGNNPGGSGNNMLGGNPGGGNSNNNGSNTSNASNNNQNPHLSPAAGRLGVPTSMQSNGPSVSSVASSSVPSPATPTLTPTSTATSMSTSVPTSSPAPPAMSPHHSLNSAGPSPGMPNSGPSPLQSPAGPNGPNNNNSNNNNGPMMGQMIPNAVPMQHQQHMGGGPPGHGPGPMPGMGMNQMLPPQQPSHLGPPHPNMMNHPHHPHHHPGGPPPHMMGGPGMHGGPAGMPPHMGGGPNPHMMGGPHGNAGPHMGHGHMGGVPGPGPGPGGMNGPPHPHMSPHHGHPHHHHNPMGGPGPNMFGGGGGGPMGPGGPMGNMGPMGGGPMGGPMGVGPKPMTMGGGKMYPPGQPMVFNPQNPNAPPIYPCGMCHKEVNDNDEAVFCESGCNFFFHRTCVGLTEAAFQMLNKEVFAEWCCDKCVSSKHIPMVKFKC
